# In all, about 310,000 compounds went through this assay and about 14,000 (4.5%) showed an effect of 50% or more. The effect is printed as a negative number. The list shows a part of the results.
# Target: human ether-à-go-go-related gene (hERG) potassium channel (human, UniProt Q12809)
# Assay: primary screen, population patch clamp on CHO cells stably expressing hERG
# 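Also: peak tail current of the secondary pulse compared with the same well before compound.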
# human ether-à-go-go-related gene (hERG) potassium channel, sequence (Q12809 whole entry, looked up): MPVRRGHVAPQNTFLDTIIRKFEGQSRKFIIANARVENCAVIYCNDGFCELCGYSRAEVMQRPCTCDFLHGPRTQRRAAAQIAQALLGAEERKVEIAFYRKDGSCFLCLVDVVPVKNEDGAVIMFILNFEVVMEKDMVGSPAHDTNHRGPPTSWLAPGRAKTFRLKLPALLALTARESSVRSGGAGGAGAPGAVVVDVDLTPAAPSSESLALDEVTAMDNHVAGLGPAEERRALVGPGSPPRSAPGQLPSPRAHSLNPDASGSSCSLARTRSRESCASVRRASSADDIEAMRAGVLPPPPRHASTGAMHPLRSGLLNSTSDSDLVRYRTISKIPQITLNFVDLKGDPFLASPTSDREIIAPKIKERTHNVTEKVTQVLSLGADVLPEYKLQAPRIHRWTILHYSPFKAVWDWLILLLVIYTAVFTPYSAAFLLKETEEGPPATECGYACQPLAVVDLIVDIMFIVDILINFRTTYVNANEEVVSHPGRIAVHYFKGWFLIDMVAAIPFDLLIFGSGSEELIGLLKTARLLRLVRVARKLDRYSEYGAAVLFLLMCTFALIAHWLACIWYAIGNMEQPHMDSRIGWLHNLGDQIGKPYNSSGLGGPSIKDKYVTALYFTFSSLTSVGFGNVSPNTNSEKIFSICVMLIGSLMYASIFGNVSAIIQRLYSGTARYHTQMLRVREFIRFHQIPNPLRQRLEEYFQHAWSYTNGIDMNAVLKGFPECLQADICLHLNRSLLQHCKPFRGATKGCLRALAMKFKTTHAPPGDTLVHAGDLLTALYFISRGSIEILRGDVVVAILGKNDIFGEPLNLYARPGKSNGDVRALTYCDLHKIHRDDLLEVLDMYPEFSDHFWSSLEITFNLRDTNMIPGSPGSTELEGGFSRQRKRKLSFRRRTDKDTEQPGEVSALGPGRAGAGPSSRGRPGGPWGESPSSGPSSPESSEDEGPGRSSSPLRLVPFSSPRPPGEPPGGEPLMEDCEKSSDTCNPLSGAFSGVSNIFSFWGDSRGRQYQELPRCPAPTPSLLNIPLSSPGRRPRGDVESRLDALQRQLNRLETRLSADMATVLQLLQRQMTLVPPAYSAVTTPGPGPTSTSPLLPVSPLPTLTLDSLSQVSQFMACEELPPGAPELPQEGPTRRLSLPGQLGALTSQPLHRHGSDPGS
row,SMILES,"hERG current change (%, negative = inhibition) at 10uM [%]"
1,O=C(Nc1nc2c(F)cccc2s1)C1CC1,-8.38
2,O=C(/C=C/c1ccc(Br)o1)NCc1ccccc1,11.1
3,CSCC[C@H](NC(=O)c1nn(C)c(=O)c2ccccc12)c1nc2ccccc2[nH]1,-3.07
4,CCc1c(C)nc2c(C)cccc2c1SCCC#N,17.7
5,Cc1cc(C)c2c(=O)cc(C(=O)NCc3ccccc3)oc2c1,3.49
6,CC(=O)N1CCN(S(=O)(=O)c2c(F)cc(F)c(Cl)c2F)CC1,4.93
7,O=C(CCn1ccc([N+](=O)[O-])n1)Nc1nccs1,21.8
8,CC(=O)C1CCN(Cc2ccccc2)CC1,20.5
9,COc1ccc(Cl)cc1NC(=O)COC(=O)C1CC1,-0.403
10,O=C(NCc1ccc(Cl)cc1)C1CCC(=O)N(C2CC2)C1 (centres unmarked),-4.23
11,NC(N)=NS(=O)(=O)c1ccc(NC(=S)NC(=O)/C=C/c2ccco2)cc1,5.99
12,N#Cc1c(NC(=O)CSc2nnnn2C2CCCC2)sc2c1CCCC2,-20.9
13,O=C(COc1ccc(S(=O)(=O)NC2CCCCC2)cc1)NCc1ccccn1,-10.9
14,COC(=O)c1cn(NC(=O)c2ccc3c(c2)OCO3)c(=O)c2ccccc12,8.31
15,O=c1[nH]c2ccsc2c(=O)n1-c1ccc(F)c(Cl)c1,0.659
16,Cn1c(=O)cc(SCC(=O)Nc2cccnc2)c2ccccc21,-5.09
17,COc1ccc(N(C)S(=O)(=O)c2ccc(Cl)c(C(=O)NCCc3ccc(Cl)cc3)c2)cc1,-15.9
18,COc1ccc(S(=O)(=O)N2CCSC2c2ccccc2)cc1 (centres unmarked),-13.6
19,O=C(c1ccccc1)N1CCCC(C(=O)N2CCc3ccccc3C2)C1 (centres unmarked),-2
20,O=C(CN1C(=O)/C(=C\c2cccc(Cl)c2)Sc2ccccc21)NCCCN1CCOCC1,-44.8
21,Cc1ccc(C)c(NC(=S)N2CCC(NC(=O)c3ccccc3)CC2)c1,15.1
22,CC1(C)C2CCC1(CS(=O)(=O)NCc1ccc(Cl)cc1Cl)C(=O)C2 (centres unmarked),-23.4
23,S=C(c1ccc(N2CCOCC2)cc1)N1CCCCC1,17.7

row,SMILES,"hERG current change (%, negative = inhibition) at 10uM [%]"
1,COc1ccc(C(CNC(=O)c2cccc(S(=O)(=O)N(C)c3ccccc3)c2)N2CCCC2)cc1 (centres unmarked),-60.2
2,C[N+](C)(C)CCc1ccc(O)cc1.[I-],15.4
3,Clc1cccc(OCc2nc(-c3ccncc3)n[nH]2)c1,-15.1
4,O=C(/C=C/c1cccs1)c1ccc(NC(=O)c2ccccc2F)cc1,-7.8
5,COc1ccccc1CNCc1ccc(C)cc1.O=C(O)C(=O)O,-6.14
6,O=C1CCc2cc(S(=O)(=O)NC(Cc3ccccc3)C(=O)NC3CCCCC3)ccc2N1 (centres unmarked),2.47
7,O=C(COC(=O)c1cc(S(=O)(=O)N2CCOCC2)cs1)c1ccccc1,-0.734
8,CC(C)c1ccc(NC(=S)NN2CCN(C)CC2)cc1,-4.46
9,Cc1cc(/C=N/NC(=O)c2cccnc2)c(C)n1CC(C)C,5.33
10,CC(C)CCNC(=O)c1cn(CC(C)C)c(=O)c2c1c1ccccc1n2C,22.2
11,CN1CCOc2ccc(S(=O)(=O)NCCc3ccc(Cl)cc3)cc21,-3.9
12,COc1ccccc1OCc1ccc(C(=O)NCC2CCCO2)cc1 (centres unmarked),7.65
13,COc1cccc(NC(=S)N(CCN2CCCCC2)Cc2ccco2)c1,-43.9
14,CC(NC1CCCC1)c1ccccc1 (centres unmarked),-2.83
15,COC(=O)c1cc(OC)c(OC)cc1NC(=O)c1ccco1,2.59
16,Cc1ccc(Oc2nc3ccccc3n3cccc23)cc1,-10.1
17,COC(=O)[C@@]12CCCCN1[C@H](c1ccc(SC3CCCCC3)cc1)[C@H]1C(=O)N(C)C(=O)[C@H]12.O=C(O)C(F)(F)F,-1.98
18,Cc1ccsc1C(=O)N1CCN(S(=O)(=O)c2cccs2)CC1,8.87
19,CCC(=NCc1ccc2c(c1)OCO2)c1c(O)n(C)c(=O)n(C)c1=O,1.45
20,COc1cccc(/C=N/N2CCN(C3c4ccccc4-c4ccccc43)CC2)c1O,10.2
21,Cc1cccc(C(O)(C(=O)NNC(=O)CN2CCN(C)CC2)c2cccc(C)c2)c1,-3.69
22,O=C(Cc1ccc2ccccc2c1)Nc1ccccc1Br,9.63
23,COc1cc(NC(=O)c2ccc([N+](=O)[O-])o2)ccc1NC(=O)c1cccs1,-30.2

row,SMILES,"hERG current change (%, negative = inhibition) at 10uM [%]"
1,Cc1nc2ccc(C(C(F)(F)F)(C(F)(F)F)C(F)(F)F)cc2[nH]1,-29.7
2,CC(OC(=O)CNC(=O)c1ccc(Cl)c(Cl)c1)C(=O)N1CCOCC1 (centres unmarked),-0.57
3,CCN(CC)S(=O)(=O)c1ccc2c(c1)c(=O)c(C(=O)NCCCN(C)c1ccccc1)cn2C,-12.2
4,Cc1cc(CNC(=O)COc2ccc(F)cc2F)c2ccccc2n1,-27.8
5,COc1ccccc1CNC(=O)C(NS(=O)(=O)c1ccc2c(c1)oc(=O)n2C)C(C)C (centres unmarked),-2.23
6,COc1ccccc1N1CCN(C(=O)COc2cc(C)cc(C)c2)CC1,10.8
7,C=CCN1C(=O)c2ccc(C(=O)OCC(=O)N(C)C3CCCCC3)cc2C1=O,-4.24
8,CCC(C)NC(=O)CCc1nc2ccccc2n1-c1ccccc1 (centres unmarked),2.77
9,CCN(c1cccc(C)c1)S(=O)(=O)c1ccc2c(c1)CCN2C(C)=O,1.61
10,CN(C)C(=O)CSc1cccc2cccnc12,0.597
11,CCn1cc(C(=O)N[C@@H](CCSC)C(=O)NCCCO)c(=O)c2cc3c(cc21)OCO3,18.4
12,O=C(Nc1ccc2c(c1)OCO2)Nc1ccc(F)cc1F,21
13,Cc1cc(F)ccc1NC(=O)CCCN(C)S(=O)(=O)c1ccc(F)cc1,-5.3
14,CCC1(CCc2ccncc2)C(=O)NC(=O)NC1=O,-4.69
15,COc1ccccc1C(c1nnnn1CC1CCCO1)N1CCN(c2ccccc2)CC1 (centres unmarked),12
16,CCc1cc2cc(C)cc(C)c2nc1SCC(=O)N1CCCC1,15.4
17,O=C(CC1Sc2ncnn2C1=O)Nc1ccc(Br)cc1 (centres unmarked),2.01
18,COCC(=O)N1CCCC(N(C)CCc2ccc(OC)c(OC)c2)C1 (centres unmarked),8.28
19,Cc1c(C(=O)NCc2ccccn2)oc2ccccc12,8.09
20,O=C(CO/N=C/c1ccc2c(c1)OCO2)Nc1cccc(Br)c1,-3.9
21,COc1cc(OC)c(S(=O)(=O)Nc2ccccc2N2CCCCC2)cc1NC(C)=O,18.8
22,O=C1c2cccc3cccc(c23)C(=O)N1OS(=O)(=O)c1ccc(Br)cc1,24.2
23,Cc1nn(Cc2ccccc2)c(Cl)c1/C=C/C(=O)OCC(=O)N(C)C1CCS(=O)(=O)C1 (centres unmarked),-12.4

row,SMILES,"hERG current change (%, negative = inhibition) at 10uM [%]"
1,O=C(NCc1ccco1)c1ccccc1NS(=O)(=O)c1ccc(Br)s1,-6.34
2,C[C@H]1C(=O)N(C)CCN1Cc1cn(C)nc1-c1ccc(Oc2ccccc2)cc1,-4.92
3,O=C(CN1C(=O)c2ccccc2S1(=O)=O)c1ccc(F)c(F)c1,4.19
4,COC(=O)c1ccccc1NC(=O)c1cc(C)no1,17
5,CCC(C)[C@H](NC(=O)[C@H](Cc1ccccc1)n1c(=O)[nH]c2ccccc2c1=O)C(=O)NCC1CCC(C(=O)O)CC1 (some centres unmarked),20.4
6,O=C/C=C/c1coc2ccc3ccccc3c2c1=O,11.4
7,O=C(CSc1nc2ccccc2o1)NC1CCCC1,16.5
8,S=C(NCc1ccncc1)Nc1ccccc1,-6.19
9,Cc1ccc(C(=O)Nc2cccnc2Cl)cc1Cl,7.74
10,O=C(NNc1c2ccccc2nc2ccccc12)c1cccc(O)c1,6.93
11,NC(=O)CSc1nc2ccccc2c(=O)n1CCc1ccccc1,8.93
12,O=C(c1cccc(NS(=O)(=O)c2cccc([N+](=O)[O-])c2)c1)N1CCOCC1,24.3
13,CC(C)CNC(=O)c1cccc(NC(=O)COc2ccc([N+](=O)[O-])cc2)c1,-57.4
14,Cc1cccc(C(=O)O/N=C(\N)Cc2ccc([N+](=O)[O-])cc2)c1,-64.3
15,Cc1cccc(C(=O)OCC(=O)NCCCc2ccccc2)c1O,9.15
16,COc1ccc(NC(=O)c2cn(CCC#N)nc2-c2ccc(OC)c(OC)c2)cc1,-1.61
17,CC(=O)Nc1ccc(NC(=O)C(C)OC(=O)/C=C/c2cccs2)cc1 (centres unmarked),-31.7
18,COc1ccccc1-c1nnc2sc(-c3ccc(N(C)C)cc3)nn12,-11
19,CC(C)(Oc1ccc(Cl)cc1)C(=O)NNC(=O)c1ccc(Br)o1,-20.1
20,O=C(CCn1c(=S)oc2ccccc21)Nc1cccc(O)c1,21.2

# — publication PMC4336329 (PLoS ONE, 2015)
